# According to publication PMC8866669:
# No constants are given. Whether binding was seen depends on the method and setting. In cells and extracts the contact can be indirect. Some entries that bind do so weakly or less than the wild type. Tags and fused reporters may be left off the sequences shown.
# T1: TM4SF5_(91-197)-Strep, N-terminal half-deleted mutant (UniProt O14894)
# T1 sequence: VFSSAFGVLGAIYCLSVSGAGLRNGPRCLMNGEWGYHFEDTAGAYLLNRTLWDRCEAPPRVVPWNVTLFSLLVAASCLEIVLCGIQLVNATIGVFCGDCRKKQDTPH
# B1: Glucose transporter 8 (GLUT8), FLAG-tagged (protein, UniProt Q9NY64 1-477)
# chain: MTPEDPEETQPLLGPPGGSAPRGRRVFLAAFAAALGPLSFGFALGYSSPAIPSLQRAAPPAPRLDDAAASWFGAVVTLGAAAGGVLGGWLVDRAGRKLSLLLCSVPFVAGFAVITAAQDVWMLLGGRLLTGLACGVASLVAPVYISEIAYPAVRGLLGSCVQLMVVVGILLAYLAGWVLEWRWLAVLGCVPPSLMLLLMCFMPETPRFLLTQHRRQEAMAALRFLWGSEQGWEDPPIGAEQSFHLALLRQPGIYKPFIIGVSLMAFQQLSGVNAVMFYAETIFEEAKFKDSSLASVVVGVIQVLFTAVAALIMDRAGRRLLLVLSGVVMVFSTSAFGAYFKLTQGGPGNSSHVAISAPVSAQPVDASVGLAWLAVGSMCLFIAGFAVGWGPIPWLLMSEIFPLHVKGVATGICVLTNWLMAFLVTKEFSSLMEVLRPYGAFWLASAFCIFSVLFTLFCVPETKGKTLEQITAHFEGR
# Experiments:
# [1] = target: TM4SF5-Strep A132V mutant (UniProt O14894); experiment: pull-down; co-precipitation of GLUT8-FLAG with TM4SF5-Strep wild type or mutants from transfected cells (Fig. S5B-D); beads and treatment of the cells are not told in what was shown
# [2] = target: TM4SF5-Strep N138A mutant (UniProt O14894); experiment: as above
# [3] = target: TM4SF5-Strep N155Q mutant (UniProt O14894); experiment: as above
# [4] = target: TM4SF5-Strep T157A mutant (UniProt O14894); experiment: as above
# [5] = target: TM4SF5-Strep V156A mutant (UniProt O14894); experiment: as above
# [6] = target: TM4SF5-Strep W154A mutant (UniProt O14894); experiment: as above
# [7] = target: TM4SF5-Strep glycosylation-deficient N138A/N155Q mutant (UniProt O14894); experiment: as above
# [8] = target: TM4SF5_(1-90)-Strep, C-terminal half-deleted mutant (UniProt O14894); experiment: as above
# [9] = target: T1, TM4SF5_(91-197)-Strep, N-terminal half-deleted mutant; experiment: as above
# [10] = target: Transmembrane 4 L six family member 5 (TM4SF5), wild type, Strep-tagged (UniProt O14894); experiment: as above
# [11] = target: Transmembrane 4 L six family member 5 (TM4SF5), wild type, Strep-tagged (UniProt O14894); experiment: condition: only ~15–30 min after fructose treatment (450 mg/dL) of glucose-starved cells; pull-down; as a1, but cells harvested ~15-30 min after fructose treatment (450 mg/dL) of glucose-starved Huh7 cells; streptavidin-agarose co-pulldown of TM4SF5-Strep
# [12] = target: Transmembrane 4 L six family member 5 (TM4SF5), wild type, Strep-tagged (UniProt O14894); experiment: pull-down; co-pulldown of TM4SF5-Strep with streptavidin-conjugated agarose beads from lysates of transfected Huh7 cells (IP lysis buffer: 40 mM HEPES pH 7.4, 150 mM NaCl, 1 mM EDTA, 0.5% Triton X-100); cells glucose-starved 16 h, without or with fructose (450 mg/dL; 0-120 min); the text calls it co-immunoprecipitation
binder,measurement,setting,value
B1,binding,[1],binds
same,binding,[2],binds
same,binding,[3],binds
same,binding,[4],no binding
same,binding,[5],no binding
same,binding,[6],binds
same,binding,[7],binds
same,binding,[8],no binding
same,binding,[9],binds
same,binding,[10],binds
same,binding,[11],no binding
same,binding,[12],binds
